± gives the standard deviation of the averaged measurements. This is one part of the list.
Tested on: PfAP2-EXP AP2 domain (GST-tagged)
Experiment: gcPBM binding intensity (ln(normalized median fluorescence intensity)); higher = stronger DNA binding
Method in brief: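 An Agilent 4 × 180k array of primer-extended double-stranded 36-bp intergenic genomic probes, with negative controls, was incubated for 1 h with GST-tagged P. falciparum DNA-binding domains expressed in E. coli. Alexa488 anti-GST antibody detected bound protein, scanned at 488 nm. Binding intensity is the highest Masliner-normalised natural-log median intensity across replicate spots of either probe orientation.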

Sequence	gcPBM binding intensity (ln)
ACATATGTATAATAATGTACGCATTAAATATAATTA [XGTACX_site7851]	8.55 ± 0.37
AAACAAATGTACAAAGTGCATATTTTTTTCAAAAGG	8.28 ± 0.18
AAAAAAAAATAAAATAAAATAAAATAAAATAATATA [CACACA_negctrl_site1798]	8.12 ± 0.44
ATAATATATATTAATACACACACACCGATATATATA [CACACA_site9261]	8.93 ± 0.54
GACCAATACTTTAAAAGTACAAACCTTATTTTATTT [XGTACX_site2718]	8.71 ± 0.23
AAAAAAAAAAAAAAATGTACATTATACACATTATAT [XGTACX_site6824]	8.52 ± 0.33
TAGCCAAAATATAATTTACACACTTATTAAATAATT [CACACA_site7963]	8.11 ± 0.37
AATTATGCATTTGTCACACATATATATTACACTTGC [CACACA_site5324]	8.86 ± 0.47
ATATAATATTGAGTTTGTACATATATATATGAAGAT [XGTACX_site4444]	8.62 ± 0.26
AAATAAATATATATATGTACATACAAATACACGGTA [XGTACX_site8510]	8.94 ± 0.35
AAGAAAAATGTCATATGATATCATATATTTTATAAT [TGCATGCA_negctrl_site296]	8.31 ± 0.39
ATTTTCCCTTGTTTTACACACGTGCTGATATGAGAT [CACACA_site2164]	9.46 ± 0.62
TAATTAAGCATAAATATAATTTTATATTTTATTTCC [XGTACX_negctrl_site321]	7.91 ± 0.24
TGCAGTCTGGAGAAAAGTACATAGTATCTGGTAGCT [XGTACX_site2547]	8.65 ± 0.42
TAACATAGCAATGTTTCACACACAAGAAAAAATACA [CACACA_site8747]	8.84 ± 0.45
ATATATGTATATATTTGTACATATAATATTTTTTAA [XGTACX_site6345]	8 ± 0.25
ATTTGTAATTTATTCAAACACACAATTTGGACCTTT [CACACA_site1062]	8.22 ± 0.4
TATTCACATACAGAAACACACACATATATATAAATT [CACACA_site9232]	8.68 ± 0.56
TTTGTGTGTGCGTGTGCATGTTGTTTTTTTCTATAA [TGCATGCA_site17]	9.18 ± 0.45
AATATAATAACTTATTGTACGAAATTATATCACCTT [XGTACX_site7883]	8.37 ± 0.34
AAAAAATAAAAAAAAACACACACATACAAGCATATA [CACACA_site8451]	8.68 ± 0.49
AGAGAGAGAAATACAAGTACATGTGAAACCAATCTA [XGTACX_site2767]	8.82 ± 0.38
AAAAAAAACAAATACACACGCACACCGAAAAAAAAA [CACACA_site803]	8.53 ± 0.54

Sequence	gcPBM binding intensity (ln)
AAAAAAAAAAAAATTGCACACAAAAAAAAAAAAAAA [CACACA_site8644]	8.28 ± 0.41
TTCAACATAATATGCACACAAAAATTATGGAACGAA [CACACA_site2111]	8.89 ± 0.38
AAAAAAAAATACCTACGTACATATATATATTATATA [XGTACX_site3983]	8.46 ± 0.33
AAAAAAAAAAAACACACACACACACCCACAAAATAT [CACACA_site1447]	8.7 ± 0.62
CAGACAATAAAGAAGTGTACACATATATCAATAAAA [XGTACX_site4515]	8.92 ± 0.34
CTTTATCTTCTCACGAAGATTGAATAAGGTATTCTT [XGTACX_negctrl_site307]	8.18 ± 0.49
TTAATGCACTTTATTACACACACTAGTTCATTACCT [CACACA_site2294]	9.255 ± 0.049
TATATTATAATTTGAAGTACATTTTAAATTAACTAA [XGTACX_site1013]	8.08 ± 0.24
ATATAATAGTATATATGTACATATATTTAAATACTA [XGTACX_site1135]	8.45 ± 0.35
TGTAAAAAATTTAACACACACATATATAAATATGTA [CACACA_site7261]	8.15 ± 0.36
CATATACATACACATACACACATACACCCATACACA [CACACA_site8514]	8.77 ± 0.55
AATATATATTTATGTACACACTCCAATACAGATACA [CACACA_site5481]	8.79 ± 0.35
AGTAAATAATTATATACATGCATTTACTAATATTTA [TGCATGCA_site952]	8.69 ± 0.23
ATATGACGTAGTGGTGTACACACATGGTACCTTTAT [CACACA_site8436]	9.1 ± 0.53
TTCGTTCTTTTATGCACACTCAACATATAAATTAAA [CACACA_site1209]	9 ± 0.35
TTATAATATATATGTAGTACTGTTTTTTTCTATTTT [XGTACX_site7749]	8.59 ± 0.52
TATTATTTTAAAAATGCATGTTCATATGAAATAATA [TGCATGCA_site969]	8.88 ± 0.45
TGTACAAATATGTACACACACACATATATATATATA [CACACA_site584]	9.95 ± 0.31
ATACTATTATATATATGTACATATATATGATGCTCT [XGTACX_site1771]	8.73 ± 0.4
AAGGAGCCTATGAACACACACATGTACATATATTAA [CACACA_site4084]	8.58 ± 0.49
TTTGTATTAAAAAAAAAAAAAAAAAAAATGAATAAA [TGCATGCA_negctrl_site292]	8.14 ± 0.47
TTTTTTTTTTTTTTTTTTTTTTTTCATTTGATATTA [TGCATGCA_negctrl_site112]	7.89 ± 0.58
ATAACGGAAAAAAAAAGTACATGATATAAACATGAA [XGTACX_site8428]	8.6 ± 0.51

Sequence	gcPBM binding intensity (ln)
AAAAATAAGATATATACACACATATAAATATAAATA [CACACA_site7396]	8.51 ± 0.38
TTATTTATTCTATGTGCATGTTATTTTTTTTTTTCG [TGCATGCA_site262]	9.03 ± 0.35
ATAAAATTATCTACATGTACTCATATATATTTGTTT [XGTACX_site5911]	9.03 ± 0.45
AGAGAGAAAGTTATAACATGCAACAATTTTTAGAAG [TGCATGCA_site1]	8.94 ± 0.43
TATATATATATATGTGGTACATAAAATTATTATTTT [XGTACX_site4554]	10.1 ± 0.43
CTTTAAACCCTGAACACACACAAATACACCCAAAAA [CACACA_site4297]	8.81 ± 0.42
TTTTTATGTGTATATTATTACATTTACATCTTTAAC [CACACA_negctrl_site1676]	8.54 ± 0.43
ACAAGACAACAAGGAAGTACTCATAAATATATTTGG [XGTACX_site1423]	8.83 ± 0.44
CTCACATATATATATAGTACAATTTTTTTTTTTTTT [XGTACX_site5999]	8.47 ± 0.42
ATGTAGAATTGTAAATGTACATGAAACACATATTCA [XGTACX_site3436]	8.79 ± 0.34
TATATATATATATTATGTACATATAAATATATTTTT [XGTACX_site1509]	9.71 ± 0.28
AAGAAAAATACTACGTGTACCAAACTTCCTACCAAC [XGTACX_site1426]	8.74 ± 0.52
AATATATATATGTGTACACATCCAAAATAGGCATAC [CACACA_site5705]	9.08 ± 0.4
TGTAAATATAAAAGATAATGATAAAAGGGACATTTT [CACACA_negctrl_site661]	8.75 ± 0.37
ATCTATATTATAATAACACACATATATTATAGTATA [CACACA_site6330]	8.34 ± 0.33
ATATATATATAAATATGTACATATTTATATATGAAT [XGTACX_site3220]	9.5 ± 0.18
TTTTTTAAAGTTTAAAGTACATATAAAAATATATAA [XGTACX_site5267]	8.19 ± 0.41
TATATATATATATTATGTACATATATAAATTAACAT [XGTACX_site3368]	9.82 ± 0.25
CTTAAAATATATTTAGTGCATATACTAATATATTAT	8.41 ± 0.11
AATATAGGAATATGCACACATATATACATACATACA [CACACA_site1521]	8.93 ± 0.15
TATGAAAAAAAAAAAAAAAAAAAAAAAAAAAAAAAA [XGTACX_negctrl_site587]	7.93 ± 0.61
TATATATGGATATATACACACAACGGTTATAAATAT [CACACA_site6655]	8.46 ± 0.46
AAAAAAATAAAATATATATATATATATATATATATA [GTGCAC_negctrl_site706]	10.1 ± 0.39

Sequence	gcPBM binding intensity (ln)
TCTTTTATATATAATAATTATATATAACATTCAAAC [GTGCAC_negctrl_site112]	8.45 ± 0.4
GTTAATCACCATGTGGTGCATATAAGGGCATATTAT [GTGCAC_site9748]	8.95 ± 0.11
AATTAATAAAAAAGGTGTACAGTAAATGCAATAATC [XGTACX_site7956]	9.42 ± 0.47
CCTTATACGATATTATGTACGCATATGTGCATTTTT [XGTACX_site1570]	8.69 ± 0.38
ATAAATTCATACATTTGTACACAAAAAAAAAAAAAA [XGTACX_site2435]	8.48 ± 0.56
TAATGGTATAAAAAATGTACATGTTTTTTTACAATT [XGTACX_site4285]	8.45 ± 0.35
ATTATTTGATTAAAGGTGCAAGGATAATAATAAAAC	9.04 ± 0.3
ATATATATATATTTATGTACATATTATTTATTCTTT [XGTACX_site6567]	9.94 ± 0.17
ACATATAATAAAATAGTGCATTGTTAGTTTTATATA	8.565 ± 0.064
TATATTTACTTATATGCACACATAAATGTGAATTAT [CACACA_site9258]	8.37 ± 0.092
TATTATATAATATACTGTACAATATCCATTATTTAC [XGTACX_site7091]	8.6 ± 0.39
ATTCATTCCATACTTTAACACACAAATATATTTAAT [CACACA_site7930]	8.68 ± 0.34
TTTATACAAATATGTACACACTAAATATATATTATG [CACACA_site4413]	8.52 ± 0.3
AAAGGAAAAGTTGACTGTACATAAGTAAAAAATAAT [XGTACX_site788]	9.15 ± 0.42
AAAAAAAAAAAAAACACACAGAAATATATATATATT [CACACA_site832]	8.54 ± 0.56
TTTTTGTAACCGATTCTGCACTGAGAAGCACATATA	8.51 ± 0.24
TACACATACAGACATACACACATACCCATATACTCA [CACACA_site5037]	8.57 ± 0.62
GGCATATATATATGCACACATACATATATACATGTG [CACACA_site3859]	8.82 ± 0.11
GAAATTACTTTATAAACACACATTTATTTTATTTTA [CACACA_site7007]	8.45 ± 0.24
TTATTTACAAAACAAATCAAAATATCCAAAAGAATA [CACACA_negctrl_site1789]	8.22 ± 0.46

Reference: the supplement of paper PMC11417369
